In the supplement of paper PMC12217912:
This is one part of the list. The full chains were built here from the parent and the listed change. Inactive controls read about 0.05.

B1: TEV protease; numbered along this chain (parent)
chain: MGESLFKGPRDYNPISSSICHLTNESDGHTTSLYGIGFGPFIITNKHLFRRNNGTLVVQSLHGVFKVKDTTTLQQHLVDGRDMIIIRMPKDFPPFPQKLKFREPQREERICLVTTNFQTKSMSSMVSDTSCTFPSGDGIFWKHWIQTKDGQCGSPLVSTRDGFIVGIHSASNFTNTNNYFTSVPKNFMELLTNQEAQQWVSGWRLNADSVLWGGHKVFMVKPEEPFQPVKEATQL

Variants of: B1
Assay: raw area under fraction-flipped curve 0-4 h after induction (AUC4h, not background-subtracted), DNA-recorder readout of cleavage of the substrate (dimensionless); higher = more cleavage of the substrate by the protease variant
Details: temperature: 34 °C; time window: 0-4 h after rhamnose induction
Experimental: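 In vivo DNA recorder in E. coli TOP10(DE3) ΔrhaA at 34 °C. Each TEVp single-site mutant (parent TEVp 0) is paired with a single-site variant of the 7-mer TEVs (canonical ENLYFQ|S). The substrate sits between flexible linkers in a Bxb1-sfGFP-TEVs-SsrA fusion, so cleavage stabilises Bxb1 and speeds flipping of a recombination array, read by NGS. The value is the raw area under the fraction-flipped curve over 0-4 h after rhamnose induction (AUC4h), with ≥20 reads per time point. It is not background-subtracted; inactive controls average about 0.047.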
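Also: Bxb1 expression induced with 0.2% (w/v) L-rhamnose at OD600 near 0.5, cultures sampled hourly, flipped fraction per protease–substrate barcode pair counted by paired-end Illumina sequencing.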

Variant	area with substrate ENAYFQS	area with substrate ENCYFQS	area with substrate ENDYFQS	area with substrate ENEYFQS	area with substrate ENFYFQS	area with substrate ENGYFQS	area with substrate ENHYFQS	area with substrate ENKYFQS	area with substrate ENNYFQS	area with substrate ENQYFQS	area with substrate ENRYFQS	area with substrate ENSYFQS	area with substrate ENTYFQS	area with substrate ENVYFQS	area with substrate ENWYFQS	area with substrate ENIYFQS	area with substrate ENYYFQS	area with substrate ENMYFQS	area with substrate ENPYFQS
MGESLFKGPRDYNPISSSICHLTNESDGHTTSLYGIGFGPFIITNKHLFRRNQGTLVVQSLHGVFKVKDTTTLQQHLVDGRDMIIIRMPKDFPPFPQKLKFREPQREERICLVTTNFQTKSMSSMVSDTSCTFPSGDGIFWKHWIQTKDGQCGSPLVSTRDGFIVGIHSASNFTNTNNYFTSVPKNFMELLTNQEAQQWVSGWRLNADSVLWGGHKVFMVKPEEPFQPVKEATQL [N53Q]	0.0621	0.0676	0.0683	0.0691	0.0717	0.0551	0.0613	0.0511	0.0587	0.0615	0.0522	0.0801	0.0554	0.0674	0.056				
MGESLFKGPRDYNPISSSICHLTNESDGHTTSLYGIGFGPFIITNKHLFRRQNGTLVVQSLHGVFKVKDTTTLQQHLVDGRDMIIIRMPKDFPPFPQKLKFREPQREERICLVTTNFQTKSMSSMVSDTSCTFPSGDGIFWKHWIQTKDGQCGSPLVSTRDGFIVGIHSASNFTNTNNYFTSVPKNFMELLTNQEAQQWVSGWRLNADSVLWGGHKVFMVKPEEPFQPVKEATQL [N52Q]	0.0562	0.0534	0.0651	0.139		0.0607		0.0644		0.0609	0.0615	0.0647				0.123	0.0555		
MGESLFKGPRDYNPISSSICHLTNESDGHTTSLYGIGFGPFIITNKHLFRRNNGTLVVQSLYGVFKVKDTTTLQQHLVDGRDMIIIRMPKDFPPFPQKLKFREPQREERICLVTTNFQTKSMSSMVSDTSCTFPSGDGIFWKHWIQTKDGQCGSPLVSTRDGFIVGIHSASNFTNTNNYFTSVPKNFMELLTNQEAQQWVSGWRLNADSVLWGGHKVFMVKPEEPFQPVKEATQL [H62Y]	0.0592		0.0619			0.0609	0.0584			0.0641	0.0549	0.0616	0.0678	0.0491			0.0535	0.0752	0.0594
MGESLFKGPRDYNPISSSICHLTNESDGHTTSLYGIGFGPFIITNKHLFRRNNGTLVVQSLIGVFKVKDTTTLQQHLVDGRDMIIIRMPKDFPPFPQKLKFREPQREERICLVTTNFQTKSMSSMVSDTSCTFPSGDGIFWKHWIQTKDGQCGSPLVSTRDGFIVGIHSASNFTNTNNYFTSVPKNFMELLTNQEAQQWVSGWRLNADSVLWGGHKVFMVKPEEPFQPVKEATQL [H62I]	0.0505		0.0562	0.0256			0.0559		0.0599	0.0547	0.0749	0.0621	0.0677	0.0681		0.0971		0.0771	
MGESLFKGPRDYNPISSSICHLTNESDGHTTSLYGIGFGPFIITNKHLFRRNNGTLVRQSLHGVFKVKDTTTLQQHLVDGRDMIIIRMPKDFPPFPQKLKFREPQREERICLVTTNFQTKSMSSMVSDTSCTFPSGDGIFWKHWIQTKDGQCGSPLVSTRDGFIVGIHSASNFTNTNNYFTSVPKNFMELLTNQEAQQWVSGWRLNADSVLWGGHKVFMVKPEEPFQPVKEATQL [V58R]	0.0327		0.0457	0.0448	0.0384	0.0714		0.0625	0.0396	0.0704		0.0447	0.0429		0.036	0.0569			0.0516
MGESLFKGPRDYNPISSSICHLTNESDGHTTSLYGIGFGPFIITNKHLFCRNNGTLVVQSLHGVFKVKDTTTLQQHLVDGRDMIIIRMPKDFPPFPQKLKFREPQREERICLVTTNFQTKSMSSMVSDTSCTFPSGDGIFWKHWIQTKDGQCGSPLVSTRDGFIVGIHSASNFTNTNNYFTSVPKNFMELLTNQEAQQWVSGWRLNADSVLWGGHKVFMVKPEEPFQPVKEATQL [R50C]	0.0572	0.0657	0.0637	0.0672	0.0665	0.0452		0.0688		0.0287	0.0525	0.0649		0.0781			0.0551		
MGESLFKGPRDYNPISSSICHLTNESDGHTTSLYGIGFGPFIITNKHLFRRNNGTLSVQSLHGVFKVKDTTTLQQHLVDGRDMIIIRMPKDFPPFPQKLKFREPQREERICLVTTNFQTKSMSSMVSDTSCTFPSGDGIFWKHWIQTKDGQCGSPLVSTRDGFIVGIHSASNFTNTNNYFTSVPKNFMELLTNQEAQQWVSGWRLNADSVLWGGHKVFMVKPEEPFQPVKEATQL [V57S]	0.1	0.0437	0.0594	0.0746	0.0611		0.0514		0.0671	0.0625	0.0597	0.0871	0.0632		0.0625		0.0837		0.0517
MGESLFKGPRDYNPISSSICHLTNESDGHTTSLYGIGFGPFIITNKHLFRRNNGTLNVQSLHGVFKVKDTTTLQQHLVDGRDMIIIRMPKDFPPFPQKLKFREPQREERICLVTTNFQTKSMSSMVSDTSCTFPSGDGIFWKHWIQTKDGQCGSPLVSTRDGFIVGIHSASNFTNTNNYFTSVPKNFMELLTNQEAQQWVSGWRLNADSVLWGGHKVFMVKPEEPFQPVKEATQL [V57N]	0.057	0.0822	0.0583	0.0802			0.0578	0.0404		0.0728	0.0669	0.0404	0.0723	0.0994		0.0929		0.0596	
MGESLFKGPRDYNPISSSICHLTNESDGHTTSLYGIGFGPFIITNKHLFRRNNCTLVVQSLHGVFKVKDTTTLQQHLVDGRDMIIIRMPKDFPPFPQKLKFREPQREERICLVTTNFQTKSMSSMVSDTSCTFPSGDGIFWKHWIQTKDGQCGSPLVSTRDGFIVGIHSASNFTNTNNYFTSVPKNFMELLTNQEAQQWVSGWRLNADSVLWGGHKVFMVKPEEPFQPVKEATQL [G54C]	0.0594	0.067	0.0714	0.0619	0.0438	0.053	0.0605	0.0468	0.065	0.0605	0.0686	0.0586	0.0594		0.0664	0.0915			0.055
